Some of the results follow.

This experiment relates to PfHDP1 homeodomain (GST-tagged). The experiment can be described thus: gcPBM binding intensity (ln(normalized median fluorescence intensity)); higher = stronger DNA binding. In outline: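 Binding intensity is defined as the maximum Masliner-normalised natural-log median intensity across replicate spots for either probe orientation. It was measured on an Agilent 4 × 180k array of primer-extended double-stranded 36-bp intergenic genomic probes and negative controls, to which GST-tagged P. falciparum DNA-binding domains made in E. coli were applied for 1 h in 1× PBS with 1% milk, 0.2 mg/ml BSA, 0.5% salmon testes DNA and 0.03% Triton X-100. Detection was by Alexa488 anti-GST antibody and scanning at 488 nm.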
With “TTTAAAAAAAAAAAAAAAAAAAAAAAAAAAAATTTG [CACACA_negctrl_site1235]”, the “gcPBM binding intensity (ln)” value worked out at 5.63.

As to “AAAAAAATATATATATATATATATATATTATATATG [GTGCAC_negctrl_site654]”, the “gcPBM binding intensity (ln)” value turned out to be 6.87.

Regarding “TTTTATTATTTTTGTTGTACAGTATACTGTATGATT [XGTACX_site5359]”, the “gcPBM binding intensity (ln)” value is 6.82.

On to “TAATTATAGGTATACACACACATACATTTACATAAC [CACACA_site7509]”, for which the “gcPBM binding intensity (ln)” value was found to be 7.05.

For the sequence “TTTTTTTTATGTATCACACATAATTTTTTATTATGA [CACACA_site5534]”, the “gcPBM binding intensity (ln)” value came out at 6.44.

For “AGAAAGAAAATATATACACACAAAAAAAAATATATA [CACACA_site1412]”, the “gcPBM binding intensity (ln)” value was found to be 6.61.

As to “CATCCACAAATATGTACACACATATATAAATATGTA [CACACA_site7407]”, the “gcPBM binding intensity (ln)” value is 6.73.

Take “ATAATAACAAGGCGCTGTACTGTACCGTTTTTCATA [XGTACX_site6135]”: the “gcPBM binding intensity (ln)” value stood at 6.6.

Turning to “GATATATCCTATGTTATTTTTATGGTGTAATTTAGT [XGTACX_negctrl_site112]”, the “gcPBM binding intensity (ln)” value worked out at 6.74.

In the case of “TCACATATATATTAATGTACATATATTTTTTATGTA [XGTACX_site5125]”, the “gcPBM binding intensity (ln)” value was determined as 6.22.

Turning to “GACAACTCTTTTCATACACACAAAAAAAAAAAAATA [CACACA_site2361]”, the “gcPBM binding intensity (ln)” value was found to be 6.44.

“CAATGTTAACATATTACACACATATGTATATATAAT [CACACA_site8878]”: the “gcPBM binding intensity (ln)” value turned out to be 6.8.

Consider “ATTTTTTCATATTCTACACACGTGAACAAATGAGTC [CACACA_site5635]”, for which the “gcPBM binding intensity (ln)” value was found to be 6.68.

In the case of “TACATACATACATACACACACATATATATATATATA [CACACA_site1944]”, the “gcPBM binding intensity (ln)” value is 9.5.

On to “AACAGACAAAGACACACACACATACATACATACATA [CACACA_site6351]”, for which the “gcPBM binding intensity (ln)” value was found to be 7.06.

Regarding “TATCATATTTTTATATGTACATAACATAAAAAAAAA [XGTACX_site2152]”, the “gcPBM binding intensity (ln)” value worked out at 6.

Turning to “TGATTTGTGCCGATTTGTACACATTTATATATATAT [XGTACX_site2154]”, the “gcPBM binding intensity (ln)” value is 8.3.

“ATATGCTATTTACTAGTGCAAAATATTTAAAATATG [GTGCAC_site9517]”: the “gcPBM binding intensity (ln)” value came to 9.99.

Regarding “TAAAAAAAAAAAAAAAGTACAAAAAAAATATTTTTT [XGTACX_site7941]”, the “gcPBM binding intensity (ln)” value is 6.05.

For the sequence “TTAATATAAGCAAATACACACACACCGATATATATA [CACACA_site9269]”, the “gcPBM binding intensity (ln)” value was 7.19.

Regarding “GTTGCACAATGTTACACACACAATATAGATCGTTAA [CACACA_site6717]”, the “gcPBM binding intensity (ln)” value came to 9.91.

Take “TTTATATGGATTTTTTTTTAATATTTCTTTTAATTT [TGCATGCA_negctrl_site361]”: the “gcPBM binding intensity (ln)” value is 5.96.

“ATAAAAAAAAAAAATACACACATATATTTATTTATA [CACACA_site6903]”: the “gcPBM binding intensity (ln)” value amounted to 6.17.

Consider “ATAAACAGAAAAAAAAAAAAAAAAAAAAAAAAAAAA [CACACA_negctrl_site143]”, for which the “gcPBM binding intensity (ln)” value came out at 6.12.

Consider “TTTTTTTTCTCACAAAAAATAATTAACAAAAAGGAA [XGTACX_negctrl_site154]”, for which the “gcPBM binding intensity (ln)” value is 6.47.

“GGCATGACTATCTGCACACATAAAAATAAGAAATAC [CACACA_site841]”: the “gcPBM binding intensity (ln)” value turned out to be 8.57.

On to “GATTTATACAAATATGTACACACTAATTATATATTA [CACACA_site8045]”, for which the “gcPBM binding intensity (ln)” value was found to be 6.9.

For the sequence “TTATTGTACTTGCTCGCATGCAATAAAAATATATTA [TGCATGCA_site580]”, the “gcPBM binding intensity (ln)” value was 7.19.

Consider “AAATAATATTTTACATGTACATAATAATTATTGGAT [XGTACX_site2783]”, for which the “gcPBM binding intensity (ln)” value was 6.57.

“ATAAAAATAAAAAACTGTACATACAAGATGTTACAG [XGTACX_site6690]”: the “gcPBM binding intensity (ln)” value worked out at 6.02.

With “ATGCTTCCTTAGGAATGTACACACATATATAATATG [XGTACX_site873]”, the “gcPBM binding intensity (ln)” value came to 6.67.

Regarding “TAAATATTTAAATATTGTACTAGGTATAATTGAATA [XGTACX_site3604]”, the “gcPBM binding intensity (ln)” value worked out at 6.48.

Turning to “ATAAGAAGAAGAAAAACACACATATGTAGATATATA [CACACA_site7469]”, the “gcPBM binding intensity (ln)” value was 6.83.

For “ATATATATATATATATGTACTTATTTATATATTTAT [XGTACX_site7811]”, the “gcPBM binding intensity (ln)” value amounted to 9.3.

With “TGGTTATTTATCTTTATTATAAATATTTACAAATAA [CACACA_negctrl_site1773]”, the “gcPBM binding intensity (ln)” value came to 6.33.

Regarding “GTATATATTAAAAAAAAAAAAAAAAAATTAAAATTA [CACACA_negctrl_site572]”, the “gcPBM binding intensity (ln)” value worked out at 5.76.

With “TATAAGAAAAATAACACACACATAAACATATATACA [CACACA_site2785]”, the “gcPBM binding intensity (ln)” value was 6.95.

For the sequence “TAGACTGGACATTAATGTACATAAATATATATGTAT [XGTACX_site7726]”, the “gcPBM binding intensity (ln)” value is 6.72.

Turning to “AAAAAAAAAATTCATTGTACATATATATATATATAT [XGTACX_site8346]”, the “gcPBM binding intensity (ln)” value came to 9.42.

In the case of GGAATATTAATAAGAGTGCATTTTGTATTCAATATG, the “gcPBM binding intensity (ln)” value was 7.99.

Regarding “TTTATACAATTAGACACACACAAAAAGTATATATAT [CACACA_site1082]”, the “gcPBM binding intensity (ln)” value was determined as 6.92.

As to “CAAATACCCGGACACACACACACAAAAAAAAAAAAA [CACACA_site4441]”, the “gcPBM binding intensity (ln)” value was 6.55.

“ATATAATTACATTGATGTACACGAAATGATTAACAT [XGTACX_site5183]”: the “gcPBM binding intensity (ln)” value worked out at 6.43.

In the case of “ATGGGTATATTTCCACGTACAAAAAATCCGAATTGC [XGTACX_site1490]”, the “gcPBM binding intensity (ln)” value is 6.43.

For the origin of these results see the supplement of paper PMC11417369.
